{"source": "patent US7537764", "key": {"[1]": {"target": "West Nile virus strain USA99b (strain 385-99), whole virus (West Nile virus strain 385-99 (USA99b))", "test": "ELISA on irradiated WNV; IgG1 at 10.000 µg/ml"}, "[2]": {"target": "West Nile virus strain USA99b (strain 385-99), whole virus (West Nile virus strain 385-99 (USA99b))", "test": "ELISA on irradiated WNV; IgG1 at 20.000 µg/ml"}, "[3]": {"target": "West Nile virus strain USA99b (strain 385-99), whole virus (West Nile virus strain 385-99 (USA99b))", "test": "ELISA on irradiated WNV; IgG1 at 0.630 µg/ml"}, "[4]": {"target": "West Nile virus strain USA99b (strain 385-99), whole virus (West Nile virus strain 385-99 (USA99b))", "test": "ELISA on irradiated WNV; IgG1 at 5.000 µg/ml"}, "[5]": {"target": "West Nile virus strain USA99b (strain 385-99), whole virus (West Nile virus strain 385-99 (USA99b))", "test": "ELISA on irradiated WNV; IgG1 at 1.250 µg/ml"}, "[6]": {"target": "West Nile virus strain USA99b (strain 385-99), whole virus (West Nile virus strain 385-99 (USA99b))", "test": "ELISA on irradiated WNV; IgG1 at 0.078 µg/ml"}, "[7]": {"target": "West Nile virus strain USA99b (strain 385-99), whole virus (West Nile virus strain 385-99 (USA99b))", "test": "ELISA on irradiated WNV; IgG1 at 0.160 µg/ml"}, "[8]": {"target": "West Nile virus strain USA99b (strain 385-99), whole virus (West Nile virus strain 385-99 (USA99b))", "test": "SPR (BIAcore3000), WNV captured via immobilized CR4283, IgG injected, bivalent analyte model, average of duplicates"}, "[9]": {"target": "West Nile virus strain USA99b (strain 385-99), whole virus (West Nile virus strain 385-99 (USA99b))", "test": "ELISA on irradiated WNV; IgG1 at 0.310 µg/ml"}, "[10]": {"target": "West Nile virus strain USA99b (strain 385-99), whole virus (West Nile virus strain 385-99 (USA99b))", "test": "ELISA on irradiated WNV; IgG1 at 0.000 µg/ml (no antibody)"}, "[11]": {"target": "West Nile virus strain USA99b (strain 385-99), whole virus (West Nile virus strain 385-99 (USA99b))", "test": "cell-based or functional assay"}, "[12]": {"target": "West Nile virus strain USA99b (strain 385-99), whole virus (West Nile virus strain 385-99 (USA99b))", "test": "ELISA on irradiated WNV; IgG1 at 2.500 µg/ml"}, "[13]": {"target": "West Nile virus strain USA99b (strain 385-99), whole virus (West Nile virus strain 385-99 (USA99b))", "test": "ELISA on irradiated WNV; IgG1 at 0.039 µg/ml"}, "[14]": {"target": "West Nile virus strain USA99b (strain 385-99), whole virus (West Nile virus strain 385-99 (USA99b))", "test": "phage ELISA on coated whole inactivated WNV"}}, "data": [{"binder": "CR4283 (antibody) heavy: EVQLVQSGAEVKKSGESLKISCKGSGYTFNTYWIGWVRQMPGKGLEWMGIIYPGDSDTIYSPSFQGQVTISADKSISTAYLQWSSLKASDSAMYYCARLTFRRGYSGSDSFLPPGDFDYWGQGTLVTVSSASTKGPSVFPLAPSSKSTSGGTAALGCLVKDYFPEPVTVSWNSGALTSGVHTFPAVLQSSGLYSLSSVVTVPSSSLGTQTYICNVNHKPSNTKVDKRV[skipping human IgG1 Fc] light: DIQMTQSPSTLSASVGDRVTITCRASQSISSWLAWYQQKPGKAPNLLIYAASSLQSGVPSRFSGSGSGTDFTLTISSLQPDDSATYYCQQYNTYPLTFGTKVEIKRTVAAPSVFIFPPSDEQLKSGTASVVCLLNNFYPREAKVQWKVDNALQSGNSQESVTEQDSKDSTYSLSSTLTLSKADYEKHKVYACEVTHQGLSSPVTKSFNRGEC", "values": [{"measurement": "OD 492 nm", "setting": "[1]", "result": 1.65, "unit": "OD"}, {"measurement": "OD 492 nm", "setting": "[2]", "result": 1.68, "unit": "OD"}, {"measurement": "OD 492 nm", "setting": "[3]", "result": 1.62, "unit": "OD"}, {"measurement": "OD 492 nm", "setting": "[4]", "result": 1.76, "unit": "OD"}, {"measurement": "OD 492 nm", "setting": "[5]", "result": 1.63, "unit": "OD"}, {"measurement": "OD 492 nm", "setting": "[6]", "result": 1.35, "unit": "OD"}, {"measurement": "OD 492 nm", "setting": "[7]", "result": 1.56, "unit": "OD"}, {"measurement": "Kd", "setting": "[8]", "result": 0.8, "unit": "nM"}, {"measurement": "OD 492 nm", "setting": "[9]", "result": 1.54, "unit": "OD"}, {"measurement": "OD 492 nm", "setting": "[10]", "result": 0.003, "unit": "OD"}, {"measurement": "potency in the 66% neutralizing antibody titer assay", "setting": "[11]", "result": 23.4, "unit": "µg/mL"}, {"measurement": "OD 492 nm", "setting": "[12]", "result": 1.62, "unit": "OD"}, {"measurement": "OD 492 nm", "setting": "[13]", "result": 1.02, "unit": "OD"}]}, {"binder": "SC04-274 (scFv) scFv: QVQLVQSGAEVKKPGESLKISCKGSGYSFTSYWIGWVRQMPGKGLEWMGIIYPGDSDTRYSPSFQGQVTISADRSISTAYLQWSSLKASDTAMYYCARLRGPYYDFWNGYRETHDAFNVWGQGTTVTVSSGTGGSGGTGSGTGGS[skipping about 100 residues]FGGGTKVEIKR", "values": [{"measurement": "OD 492 nm", "setting": "[14]", "result": 0.961, "unit": "OD"}]}]}
